The results in this text go back to a collection of fitness landscapes (doi:10.1016/j.celrep.2020.107928).

The labels stand for the following.
B1: Caulobacter ParB omega fusion; a variant is named by its letters at X, in order, B8GW30 (parent)
chain: MESVVVGEPGMSEGRRGLGRGLSALLGEVDAAPAQAPGEQLGGSREAPIEILQRNPDQPRRTFREEDLEDLSNSIREKGVLQPILVRPSPDTAGEYQIVAGERAWRAAQRAGLKTVPIMVRELDDLAVLEIGIIENVQRADLNVLEEALSYKVLMEKFERTQENIAQTIGKSXSHVANXMRLLXLPDEVQSYLVSGELTAXHARAIAAAADPVALAKQIIEGGLSVRETEALARKAPNLSAGKSKGGRPPRVKDTDTQALESDLSSVLGLDVSIDHRGSTGTLTITYATLEQLDDLCNRLTRGI

Over roughly 81,000 sequences, “one-hybrid fitness for binding parS DNA” has its median near -0.17; the highest 2% begin near 0.51. The list shows a part of the results. Bounds are passed on as bounds.

This test covers variants of B1. Description: one-hybrid fitness for binding parS DNA (scaled: cognate 1, non-cognate 0); higher = stronger binding. To be noted: with parS DNA site. An outline of the steps: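 Fitness here means the log change in variant-to-wild-type read ratio between plasmids sequenced before and after selection. That scale was set so cognate equals 1 and non-cognate equals 0. The selection was a bacterial one-hybrid screen of Caulobacter ParB libraries, four specificity codons randomised, in E. coli USO carrying a HIS3 reporter with the site 19 bp from the promoter, grown 48 hours at 37°C on M9-minus-histidine with 0.1 mM IPTG and 5 mM 3-AT.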
For the variant PCCV, the “one-hybrid fitness for binding parS DNA” value was at most 0.2. In the case of MTRF, the “one-hybrid fitness for binding parS DNA” value is at most 0.2.

Take LWSL: the “one-hybrid fitness for binding parS DNA” value was at most 0.2. With GSMG, the “one-hybrid fitness for binding parS DNA” value was at most 0.2. Regarding SDPC, the “one-hybrid fitness for binding parS DNA” value is at most 0.2. For the variant LHPR, the “one-hybrid fitness for binding parS DNA” value was at most 0.2. Then EQSY, with at most 0.2; and LAVF, with at most 0.2; and RRPP, with at most 0.2.

Regarding ANAR, the “one-hybrid fitness for binding parS DNA” value is at most 0.2. With PANT the figure was at most 0.2; with PNCT, at most 0.2.

In the case of YGVF, the “one-hybrid fitness for binding parS DNA” value is at most 0.2.

With LPTA, the “one-hybrid fitness for binding parS DNA” value is at most 0.2.

On to SVWC, for which the “one-hybrid fitness for binding parS DNA” value is at most 0.2. For the variant DYYS, the “one-hybrid fitness for binding parS DNA” value is at most 0.2. On to TASD, for which the “one-hybrid fitness for binding parS DNA” value was at most 0.2.

For the variant CHRT, the “one-hybrid fitness for binding parS DNA” value was at most 0.2. With IREV the figure was at most 0.2. With TYIL, the “one-hybrid fitness for binding parS DNA” value is at most 0.2. In the case of HEPQ, the “one-hybrid fitness for binding parS DNA” value is at most 0.2. As for ERPV, the “one-hybrid fitness for binding parS DNA” value is at most 0.2. With QHTM, the “one-hybrid fitness for binding parS DNA” value was at most 0.2. On to MLVM, for which the “one-hybrid fitness for binding parS DNA” value is at most 0.2.

For the variant GDGE, the “one-hybrid fitness for binding parS DNA” value was at most 0.2. VLFP: the “one-hybrid fitness for binding parS DNA” value is at most 0.2.

Consider ATRG, for which the “one-hybrid fitness for binding parS DNA” value is at most 0.2. Then WPYR, with at most 0.2; and ARRL, with at most 0.2; and LIQS, with at most 0.2.

As to MCRL, the “one-hybrid fitness for binding parS DNA” value is at most 0.2. Consider ETDR, for which the “one-hybrid fitness for binding parS DNA” value is at most 0.2.

As for LDHL, the “one-hybrid fitness for binding parS DNA” value was at most 0.2. On to HGKS, for which the “one-hybrid fitness for binding parS DNA” value was at most 0.2. In the case of NMPG, the “one-hybrid fitness for binding parS DNA” value was at most 0.2. WKCR: the “one-hybrid fitness for binding parS DNA” value is at most 0.2.

In the case of GHSK, the “one-hybrid fitness for binding parS DNA” value is at most 0.2.

As for LLQW, the “one-hybrid fitness for binding parS DNA” value is at most 0.2. For VMNC, the “one-hybrid fitness for binding parS DNA” value is at most 0.2. For the variant VKTT, the “one-hybrid fitness for binding parS DNA” value was at most 0.2. In the case of YMAD, the “one-hybrid fitness for binding parS DNA” value is at most 0.2. In the case of PREP, the “one-hybrid fitness for binding parS DNA” value is at most 0.2. With QMLF the figure was at most 0.2; with THTY, at most 0.2; with GKGR, at most 0.2. With QNQH the figure was at most 0.2. Take YFMS: the “one-hybrid fitness for binding parS DNA” value is at most 0.2. As to KNAS, the “one-hybrid fitness for binding parS DNA” value is at most 0.2. Then WRGG, with at most 0.2; and DDTT, with at most 0.2.

As for ACCR, the “one-hybrid fitness for binding parS DNA” value was at most 0.2.

On to KLNE, for which the “one-hybrid fitness for binding parS DNA” value is at most 0.2. Turning to SDPM, the “one-hybrid fitness for binding parS DNA” value was at most 0.2. With APIT the figure was at most 0.2; with RVII, at most 0.2. In the case of HIWR, the “one-hybrid fitness for binding parS DNA” value is at most 0.2. For HCFF, the “one-hybrid fitness for binding parS DNA” value is at most 0.2. On to HWPI, for which the “one-hybrid fitness for binding parS DNA” value was at most 0.2. As to LAFG, the “one-hybrid fitness for binding parS DNA” value was at most 0.2. With TRAY the figure was at most 0.2.

For CGEV, the “one-hybrid fitness for binding parS DNA” value is at most 0.2. Then EWRG, with at most 0.2; and APIW, with at most 0.2; and CFPL, with at most 0.2.

With LFSF, the “one-hybrid fitness for binding parS DNA” value was at most 0.2. In the case of KMKM, the “one-hybrid fitness for binding parS DNA” value was at most 0.2. As to VYNP, the “one-hybrid fitness for binding parS DNA” value is at most 0.2. Regarding SPKC, the “one-hybrid fitness for binding parS DNA” value was at most 0.2. As to MIVI, the “one-hybrid fitness for binding parS DNA” value was at most 0.2. Consider GKAR, for which the “one-hybrid fitness for binding parS DNA” value was at most 0.2. In the case of HGTP, the “one-hybrid fitness for binding parS DNA” value is at most 0.2.

In the case of PRTL, the “one-hybrid fitness for binding parS DNA” value is at most 0.2. Then VKIQ, with at most 0.2; and TESR, with at most 0.2; and HTCF, with at most 0.2.

As to CCYD, the “one-hybrid fitness for binding parS DNA” value was at most 0.2. With LKVY the figure was at most 0.2; with DVIV, at most 0.2; with RVPI, at most 0.2. With QMDG the figure was at most 0.2. As for SNEP, the “one-hybrid fitness for binding parS DNA” value is at most 0.2. For the variant QTQQ, the “one-hybrid fitness for binding parS DNA” value was at most 0.2.

For RIDI, the “one-hybrid fitness for binding parS DNA” value is at most 0.2. Take FVTQ: the “one-hybrid fitness for binding parS DNA” value is at most 0.2.
